{"source": "paper PMC4336329", "about": "(PLoS ONE, 2015)", "note": "About 2,200 (0.71%) of roughly 310,000 compounds showed an effect of 50% or more. The effect is printed as a negative number. The list shows a part of the results."}
{"target": "human ether-à-go-go-related gene (hERG) potassium channel (human, UniProt Q12809)", "sequence (Q12809 whole entry, looked up)": "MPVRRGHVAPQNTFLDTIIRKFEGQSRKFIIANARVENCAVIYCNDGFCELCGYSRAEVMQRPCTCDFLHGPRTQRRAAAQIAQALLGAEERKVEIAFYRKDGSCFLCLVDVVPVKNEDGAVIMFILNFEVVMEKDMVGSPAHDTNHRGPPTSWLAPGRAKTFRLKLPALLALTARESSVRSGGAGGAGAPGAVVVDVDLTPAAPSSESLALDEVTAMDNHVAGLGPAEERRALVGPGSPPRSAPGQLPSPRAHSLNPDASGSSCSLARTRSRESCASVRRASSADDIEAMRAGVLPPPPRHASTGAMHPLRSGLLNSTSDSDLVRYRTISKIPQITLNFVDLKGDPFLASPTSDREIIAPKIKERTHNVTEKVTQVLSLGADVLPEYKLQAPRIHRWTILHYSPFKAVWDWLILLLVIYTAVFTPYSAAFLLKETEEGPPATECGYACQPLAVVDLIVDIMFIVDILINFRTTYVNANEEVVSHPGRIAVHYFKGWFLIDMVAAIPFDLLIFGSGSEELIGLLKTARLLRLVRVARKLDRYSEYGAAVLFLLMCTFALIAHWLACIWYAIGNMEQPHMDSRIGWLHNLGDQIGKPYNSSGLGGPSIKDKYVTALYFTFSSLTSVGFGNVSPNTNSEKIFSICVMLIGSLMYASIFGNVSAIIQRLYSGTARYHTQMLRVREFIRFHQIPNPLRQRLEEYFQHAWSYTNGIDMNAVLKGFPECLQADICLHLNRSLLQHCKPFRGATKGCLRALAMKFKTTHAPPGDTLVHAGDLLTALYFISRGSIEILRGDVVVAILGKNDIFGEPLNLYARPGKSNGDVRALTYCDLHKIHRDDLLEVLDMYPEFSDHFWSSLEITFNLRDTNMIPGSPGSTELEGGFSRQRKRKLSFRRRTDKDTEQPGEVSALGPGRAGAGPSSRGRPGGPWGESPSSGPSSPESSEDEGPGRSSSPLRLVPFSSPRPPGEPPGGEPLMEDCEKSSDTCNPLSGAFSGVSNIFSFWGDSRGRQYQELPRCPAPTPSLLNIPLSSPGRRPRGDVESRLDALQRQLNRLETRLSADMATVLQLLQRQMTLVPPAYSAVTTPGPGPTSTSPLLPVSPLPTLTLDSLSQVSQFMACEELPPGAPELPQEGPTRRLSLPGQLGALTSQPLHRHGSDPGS", "experiment": "primary screen, population patch clamp on CHO cells stably expressing hERG", "units": {"hERG current change (%, negative = inhibition) at 1uM": "%"}}
{"molecule": "O=c1c2ccccc2nc(CSc2nnnn2-c2ccccc2)n1-c1ccccc1Cl", "hERG current change (%, negative = inhibition) at 1uM": 16}
{"molecule": "Cc1ccc(NC(=O)c2ccc([N+](=O)[O-])o2)c(C)c1", "hERG current change (%, negative = inhibition) at 1uM": 13.3}
{"molecule": "Cc1ccc(NC(=O)CSc2nnc(COc3ccccc3C)o2)cc1", "hERG current change (%, negative = inhibition) at 1uM": 3.88}
{"molecule": "O=C(OCC(=O)N1CCN(C(=O)c2ccco2)CC1)c1cc(-c2ccco2)nc2ccccc12", "hERG current change (%, negative = inhibition) at 1uM": -38.3}
{"molecule": "Cc1cccc(-n2c(O)c(C=NCCN3CCNCC3)c(=O)[nH]c2=S)c1", "hERG current change (%, negative = inhibition) at 1uM": 11.9}
{"molecule": "COc1cc(/C=N/N2C(=O)C3C4c5ccccc5C(c5ccccc54)C3C2=O)ccc1O", "note": "(centres unmarked)", "hERG current change (%, negative = inhibition) at 1uM": 7.17}
{"molecule": "O=C(CSc1nnc(CNC(=O)c2ccccc2)o1)NCc1ccccc1", "hERG current change (%, negative = inhibition) at 1uM": 10.2}
{"molecule": "CCCc1c(C(=O)Nc2cc(C(C)(C)C)on2)cnn1-c1ccccc1", "hERG current change (%, negative = inhibition) at 1uM": 8.13}
{"molecule": "O=C1NCC(c2ccccc2)C1C(=O)N/N=C\\c1ccc(-c2cccc(Cl)c2Cl)o1", "note": "(centres unmarked)", "hERG current change (%, negative = inhibition) at 1uM": 12.3}
{"molecule": "COc1cc(/C=N/NC(=O)c2nnn(-c3nonc3N)c2C(C)C)ccc1OCc1ccccc1", "hERG current change (%, negative = inhibition) at 1uM": 14.8}
{"molecule": "CCOc1ccccc1NC(=O)CSc1nc(N)c(C#N)cc1C#N", "hERG current change (%, negative = inhibition) at 1uM": 11.7}
{"molecule": "COc1ccc(C(=O)COC(=O)c2nn(C)cc2Cl)cc1", "hERG current change (%, negative = inhibition) at 1uM": 20.8}
{"molecule": "O=c1c2ccccc2nnn1CSc1nc2ccccc2c(=O)n1Cc1ccco1", "hERG current change (%, negative = inhibition) at 1uM": 13.6}
{"molecule": "CC(C)N1C(=S)N(Cc2ccco2)C(=O)C1CC(=O)Nc1ccccc1", "note": "(centres unmarked)", "hERG current change (%, negative = inhibition) at 1uM": 9.52}
{"molecule": "CN1CCCC1CCNc1ccc2c(=O)c3ccccc3oc2c1", "note": "(centres unmarked)", "hERG current change (%, negative = inhibition) at 1uM": 6.78}
{"molecule": "CCCCCN(C(=O)CCC(=O)OCC(=O)N1CCC(C)CC1)c1c(N)n(CCCC)c(=O)[nH]c1=O", "hERG current change (%, negative = inhibition) at 1uM": 6.49}
{"molecule": "Br.CC(C)(C)C(=O)CNCC(=O)C(C)(C)C", "hERG current change (%, negative = inhibition) at 1uM": 0.344}
{"molecule": "O=C(CN1CCCCCC1)Nc1ccccc1.O=C(O)C(=O)O", "hERG current change (%, negative = inhibition) at 1uM": 10.2}
{"molecule": "CCOC(=O)N1CCN(C(=O)c2ccc(CNS(=O)(=O)c3ccc(OC)cc3)cc2)CC1", "hERG current change (%, negative = inhibition) at 1uM": 3.7}
{"molecule": "COC(=O)c1ccc(C)c(NC(=O)CSc2sc3c(O)cc(=O)[nH]c3c2C#N)c1", "hERG current change (%, negative = inhibition) at 1uM": 0.111}
{"molecule": "COc1ccccc1OCC(=O)Nc1nc(C)c(C)s1", "hERG current change (%, negative = inhibition) at 1uM": 13.7}
{"molecule": "Cc1noc(/C=C/c2ccco2)c1S(=O)(=O)N1CCC(C(=O)N2CCc3ccccc3C2)CC1", "hERG current change (%, negative = inhibition) at 1uM": 1.69}
{"molecule": "COc1ccc(C(C[N+](=O)[O-])c2c(C)[nH]c3ccccc23)cc1OC", "note": "(centres unmarked)", "hERG current change (%, negative = inhibition) at 1uM": 24.1}
